Test results published in PubChem BioAssay AID1476 (National Center for Advancing Translational Sciences (NCATS), 2009).
Hit rate of the full screen: of about 200,000 compounds, about 4,500 (2.2%) were called active. The shares of active, inactive and inconclusive entries below differ from those in the screen. The call rests on the fitted dose curve; in most records, active means well fitted inhibition curve with a large enough effect; inconclusive means small, poorly fitted or top-dose-only effect, or effect the other way; inactive means flat fitted curve, though single readings scatter. A potency beside an inconclusive call is a rough fit, not a confirmed value.

Molecular target: Cruzipain (Trypanosoma cruzi) (UniProt P25779)
Sequence of UniProt P25779 (P25779 whole entry, looked up): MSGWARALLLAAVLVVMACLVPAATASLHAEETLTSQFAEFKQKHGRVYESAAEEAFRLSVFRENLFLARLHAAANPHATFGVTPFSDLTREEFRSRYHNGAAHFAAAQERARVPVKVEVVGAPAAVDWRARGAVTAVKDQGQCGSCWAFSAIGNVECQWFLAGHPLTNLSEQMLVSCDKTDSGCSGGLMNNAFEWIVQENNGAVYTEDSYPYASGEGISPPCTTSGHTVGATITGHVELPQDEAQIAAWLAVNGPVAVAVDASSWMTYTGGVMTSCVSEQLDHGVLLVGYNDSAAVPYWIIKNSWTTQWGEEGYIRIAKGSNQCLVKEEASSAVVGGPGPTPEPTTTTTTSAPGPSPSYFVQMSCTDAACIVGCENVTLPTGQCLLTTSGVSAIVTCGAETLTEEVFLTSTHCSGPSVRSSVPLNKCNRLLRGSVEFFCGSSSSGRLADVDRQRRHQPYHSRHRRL
Assay: qHTS Assay for Promiscuous and Specific Inhibitors of Cruzain (without detergent); further: nearly all actives have a fitted effect of over 40% in size;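 on max response, negative = inhibition: plate controls were enzyme without inhibitor for no effect and buffer without enzyme for full effect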
Conditions: purified cruzain, Z-FR-AMC fluorescence, no detergent
Outline: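 Purified cruzain at 1.5 nM, pre-incubated 15 min with compound at room temperature in 100 mM sodium acetate pH 5.5, 5 mM DTT, 0.00005% Triton X-100. Reaction started with 2 uM Z-FR-AMC; AMC fluorescence increase over 60 s gives rate.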
Potency means the concentration at half of the fitted maximal effect; tags describe the fitted curve by direction and shape.

Row | SMILES | Potency | max response, negative = inhibition
1 | CCOC(=O)c1cccc(NC(=O)C2CCCN(S(=O)(=O)c3c(C)nn(C)c3C)C2)c1 (stereo not drawn) | inconclusive: 39.8 µM [activator, single point] | –
2 | CC(C)c1ccc(-n2cccc2/C=C2/C(=N)N3C=CSC3=NC2=O)cc1 | inconclusive: 31.6 µM [inhibitor, single point] | –
3 | CCOc1ccc(OCC)c(NC(=O)C2CCCN(S(=O)(=O)c3c(C)n[nH]c3C)C2)c1 (stereo not drawn) | inconclusive: 25.1 µM [activator, single point] | –
4 | CCCn1c(SCC(=O)Nc2nc3ccccc3s2)nc2c1c(=O)n(C)c(=O)n2C | inconclusive: 39.8 µM [activator, single point] | –
5 | COc1cc2nc(/C=C/c3ccc(N(C)C)cc3)sc2cc1SC | inconclusive: 39.8 µM [inhibitor, single point] | –
6 | COC(=O)c1ccc(OC)c(Cn2c(=O)n(-c3cccc(Cl)c3)c(=O)c3c4c(sc32)CN(C(C)=O)CC4)c1 | – | inactive: 1.68%
7 | CCOC(=O)C1CCCN(C(=O)Cn2ncn3c(cc4sc(CC)cc43)c2=O)C1 (stereo not drawn) | – | inactive: -6.63%
8 | CCC1=Nc2cc(C(=O)NCc3ccc(C)cc3)ccc2Sc2ccc(C)cc21 | inconclusive: 39.8 µM [inhibitor, single point] | –
9 | CN(C)[C@@H]1C(=O)C(C(=O)NCN2CCCC2)=C(O)[C@@]2(O)C(=O)C3=C(O)c4c(O)cccc4[C@@](C)(O)C3CC12 (stereo partly drawn) | inconclusive: 25.1 µM [activator, single point] | –
10 | COCCCn1c(SCC(=O)Nc2ccccc2OC)nc2c(sc3ccccc32)c1=O | inconclusive: 25.1 µM [activator, partial curve] | –
11 | CN(Cc1cc(C(C)(C)C)cc(Br)c1O)Cc1cc(C(C)(C)C)cc(Br)c1O | – | inactive: 18%
12 | Cc1cccc(C(=O)Nc2ccccc2C(=O)OCc2c(C)noc2C)c1 | – | inactive: -3.79%
13 | Cc1ccc(C(=O)NNC(=O)c2cc3cc4ccccc4nc3s2)cc1 | active: 15.8 µM | –
14 | CCCC(=O)Nc1sc(C)c(-c2ccc(OC)cc2)c1C#N | active: 6.31 µM | –
15 | O=C(c1cccs1)c1cn(CCOc2ccccc2Cl)c2ccccc12 | inconclusive: 39.8 µM [inhibitor, single point] | –
16 | Clc1ccccc1/C=N/c1cc(-c2ccccc2)nn1-c1ccccc1 | inconclusive: 39.8 µM [inhibitor, single point] | –
17 | CC(C)c1ccc(NC(=O)CC2Oc3ccccc3NC2=O)cc1 (stereo not drawn) | inconclusive: 31.6 µM [inhibitor, single point] | –
18 | Cc1cc(OCC(=O)N(Cc2ccc(N(C)C)cc2)C2CCS(=O)(=O)C2)cc(C)c1Cl (stereo not drawn) | inconclusive: 25.1 µM [activator, partial curve] | –
19 | O=C1NC(=O)/C(=C/c2ccccc2Oc2ccc(Cl)cc2)S1 | active: 20 µM | –
20 | COc1ccc(NC(=O)Cn2c(=O)n(-c3ccc(OC)cc3)c(=O)c3ccc(C(=O)NCc4ccc(C)cc4)cc32)cc1 | inconclusive: 25.1 µM [inhibitor, single point] | –
21 | O=C(CSc1nc2ccccc2o1)N1c2ccccc2Sc2ccc(C(F)(F)F)cc21 | inconclusive: 31.6 µM [inhibitor, single point] | –

Row | SMILES | Potency | max response, negative = inhibition
22 | COc1cc(C(=O)NCCc2csc3nc(-c4ccccc4C)nn23)cc(OC)c1OC | inconclusive: 39.8 µM [activator, single point] | –
23 | Cc1cc(C(=O)CSc2nc(N)cc(N)n2)c(C)n1-c1cccc(C(F)(F)F)c1 | inconclusive: 39.8 µM [inhibitor, single point] | –
24 | O=C(N/N=C\c1ccc(Cl)s1)c1ccc(Cn2cccn2)o1 | – | inactive: 4.76%
25 | Cc1cc(Cl)cc(Cl)c1CNc1c([N+](=O)[O-])c(=O)oc2ccccc12 | inconclusive: 39.8 µM [inhibitor, single point] | –
26 | COc1cc(/C=C2/NC(=O)N(Cc3ccccc3F)C2=O)ccc1Oc1ccc([N+](=O)[O-])cn1 | inconclusive: 39.8 µM [inhibitor, single point] | –
27 | Cc1ccc(NC(=O)c2nnn(CC(=O)Nc3ccc(C)c(Cl)c3)c2N)c(C)c1 | active: 10 µM | –
28 | CC1=C(C(=O)Nc2ccccc2)C(c2cc(Br)ccc2F)n2ncc(C(=O)Nc3ccccc3)c2N1 (stereo not drawn) | active: 20 µM | –
29 | CC1(C)CC(=O)C(=Cc2cn(-c3ccccc3)nc2-c2ccc(Cl)cc2)C(=O)C1 | inconclusive: 3.98 µM [activator, single point] | –
30 | CCS(=O)(=O)c1c(Nc2cc(C)ccc2C)sc(C(=O)c2ccccc2)c1N | – | inactive: -8.66%
31 | COc1cccc(NC(=O)N(Cc2cc3cc(C)cc(C)c3[nH]c2=O)CC2COCCO2)c1 (stereo not drawn) | inconclusive: 39.8 µM [activator, single point] | –
32 | COc1ccc(/C(C)=N/OC/C(O)=C(\C#N)c2nc3ccccc3[nH]2)cc1 | active: 5.01 µM | –
33 | O=[N+]([O-])c1ccc(/C=N/n2cnc3ccccc32)s1 | – | inactive: 10.2%
34 | O=C(COc1ccc(Cl)cc1)NCC(c1ccco1)S(=O)(=O)c1ccc(Cl)cc1 (stereo not drawn) | – | inactive: -9.73%
35 | CCCCN(CCCC)C(=O)CSc1nnc2n(C)c(=O)c3c4c(sc3n12)CCCC4 | inconclusive: 39.8 µM [activator, single point] | –
36 | CC1O[C@@H](O[C@@H]2C(O)C[C@H](O[C@@H]3C(O)C[C@@H](OC4CC[C@@]5(C)C6CC[C@]7(C)C(C8=CC(=O)OC8)CC[C@@]7(O)C6CC[C@@H]5C4)OC3C)OC2C)CC(O)[C@H]1O (stereo partly drawn) | inconclusive: 3.98 µM [activator, full curve] | –
37 | COc1ccccc1N1CCN(C(=O)CCS(=O)(=O)c2cc(Br)cc3c2N(C(C)=O)CC3)CC1 | inconclusive: 39.8 µM [activator, single point] | –
38 | CN(C)c1ccc(/C=N/N2C(=S)SC(C)(C)C2N(O)C(=O)Nc2ccc([N+](=O)[O-])cc2)cc1 (stereo not drawn) | inconclusive: 31.6 µM [inhibitor, single point] | –
39 | COc1cc(C(=O)OCC(=O)Nc2cc(-c3cc(C)c(C)cc3C)nn2-c2ccccc2)cc(OC)c1OC | – | inactive: 9.35%
40 | CC(C)CC(COCc1ccc([N+](=O)[O-])cc1)N1CCN(C(=O)c2ccc(C(F)(F)F)cc2)CCC1=O (stereo not drawn) | inconclusive: 25.1 µM [activator, single point] | –
41 | COc1ccccc1N1CCN(C(=O)c2cnc(N3CCOCC3)c3ccccc23)CC1 | inconclusive: 39.8 µM [activator, single point] | –
42 | O=C(Nc1nnc(-c2ccco2)s1)C1CCCCC1 | inconclusive: 31.6 µM [inhibitor, single point] | –

Row | SMILES | Potency | max response, negative = inhibition
43 | Cc1[nH]n(-c2ccccc2)c(=O)c1/C=N/Nc1nncc(-c2ccccc2)n1 | inconclusive: 31.6 µM [activator, single point] | –
44 | Cc1cc(Br)cc2c(C(=O)OCC(=O)c3ccccc3)cc(-c3ccccc3)nc12 | inconclusive: 39.8 µM [activator, single point] | –
45 | COc1ccc(N(C)S(=O)(=O)c2cccc(C(=O)OC(C(=O)Nc3cc(C)cc(C)c3)c3ccccc3)c2)cc1 (stereo not drawn) | active: 10 µM | –
46 | CCN(Cc1ccccc1)C(c1cc2ccc(C)cc2[nH]c1=O)c1nnnn1CCOC (stereo not drawn) | inconclusive: 39.8 µM [activator, single point] | –
47 | CCc1ccc(NC(=O)C(CC)Sc2nc3cc4c(cc3c(=O)n2Cc2ccco2)OCO4)cc1 (stereo not drawn) | active: 25.1 µM | –
48 | CC(C)c1ccc(-c2c(C#N)c(N)nc3c2CCCCC3)cc1 | inconclusive: 39.8 µM [inhibitor, single point] | –
49 | CC(C)c1ccc(N2C(=O)N(Cc3ccccc3Cl)c3ccccc3S2(=O)=O)cc1 | inconclusive: 39.8 µM [inhibitor, single point] | –
50 | Cc1ccc(/C=C/C(=O)Nc2ncc(C)s2)o1 | inconclusive: 39.8 µM [inhibitor, single point] | –
51 | O=[N+]([O-])c1ccc(COc2cccc(CNc3ccc(Br)cc3)c2)cc1 | inconclusive: 39.8 µM [inhibitor, single point] | –
52 | CCN(Cc1ccccc1)S(=O)(=O)c1ccc(F)c(C(=O)Nc2cc(C(F)(F)F)ccc2Cl)c1 | inconclusive: 25.1 µM [inhibitor, single point] | –
53 | COc1ccc(NC(=S)N(CCc2c(C)[nH]c3ccc(C)cc23)Cc2cccs2)cc1 | inconclusive: 31.6 µM [inhibitor, single point] | –
54 | CCOc1cccc2sc(NC(=O)CS(=O)(=O)c3ccc(C)cc3)nc12 | inconclusive: 20 µM [inhibitor, partial curve, poor fit] | –
55 | CN1CCN(C2=C(Cl)C(=O)N(c3ccc(Cl)c(Cl)c3)C2=O)CC1 | active: 2.51 µM | –
56 | Clc1ccc(-c2nc3cnccn3c2NC2CCCC2)cc1 | – | inactive: 16.1%
57 | O=C(Nc1ccccc1C(=O)OCC(=O)N1CCc2ccccc2C1)c1ccco1 | active: 12.6 µM | –
58 | COc1cccc(-c2oc3ccc(C)cc3c(=O)c2O)c1 | – | inactive: 20.3%
59 | Cc1ccc(Cn2c(CNC(=O)c3ccc(Cl)c([N+](=O)[O-])c3)nc3cccnc32)cc1 | – | inactive: -17.4%
60 | CCc1ccc(NC(=O)C2CCN(S(=O)(=O)c3cccc(-c4noc(C)n4)c3)CC2)cc1 | – | inactive: 5.55%
61 | CCCc1ccc(NC(=O)C2CCCN(c3cnccn3)C2)cc1 (stereo not drawn) | inconclusive: 39.8 µM [activator, single point] | –
62 | Cc1ccccc1C(=O)NNc1ncnc2c1cnn2-c1cccc(Cl)c1 | – | inactive: -11.9%
63 | Cc1nc(C)c(-c2ccc(SCC(=O)Nc3cccc(C)c3C)nn2)s1 | – | inactive: 25.3%
